According to the supplement of paper PMC10126150:
Sequences with one replicate were seen in a single cluster, so their values are uncertain.

Tested on: ATP
Test: switch fluorescence ratio, 500 uM ATP over buffer (Cy3 cluster intensity, sum of 5 cycles each) (fold (ratio)); higher = stronger signal-on switching upon ATP binding; sequences stand for … in TCGTCGGCAGCGTCAGATGTGTATAAGAGACAGTTTTTTTTTTTTTTTTTTTTTTTTT…TC
Conditions: aptamer strand: ATP DNA aptamer (quencher-CACCTGGGGGAGTATTGCGGAGGAAGG + anchor), 100 nM annealed; ATP concentration: 500 uM; one replicate
Outline: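 After annealing to 100 nM quencher-labelled ATP aptamer, Cy3-labelled switching-strand clusters on a modified Illumina MiSeq flow-cell were imaged in selection buffer. A second image followed after 15 min with 500 uM ATP at 22 °C, and five such buffer/ATP cycles were done, each separated by NaOH stripping and re-annealing. The fluorescence ratio, averaged per switch-domain sequence, is summed target-cycle over summed buffer-cycle Cy3 intensity per cluster, with clusters outside 100-1000 RFU excluded.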
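Also: ATP exposure 15 min at 22 °C before imaging.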

Sequence | switch fluorescence ratio
CCGGATTTAA | 1.05
GGTCCATCAA | 1.02
GTGTAACGGA | 1.04
TGCTTTGGTC | 0.986
ACCGAAACAT | 1.11
GTAGGCGATG | 0.981
CCTCGTGGAC | 4.37
TATTCTTGAA | 0.939
ATAAGAAAAA | 1.08
TAGTTAGCG | 1.04
GATGGAGCGT | 1.03
AGATATAGAC | 1.05
ATCGTTGGAG | 0.948
TTCTTAACAC | 0.973
ATTGCTTTTA | 1.01
TCAAATCGCT | 1.01
CGGCACTCTA | 1.04
CGTTGAAGCG | 0.963
GTGCCATGGC | 0.999
ATCGTTTCGG | 0.972
CGCCGGGAAA | 0.975
ACGGCGTGTC | 0.962
CGGTCAGCCC | 0.977
CCGACCGGTA | 2.71
TTAAAGGTCT | 1.01

Sequence | switch fluorescence ratio
AGTAGGTGG | 0.916
AGGGCCTGGT | 1.01
GAGGCTACTA | 1.11
GGAGGAAGCT | 1.01
ACAAAATCTC | 1.05
ATACTATCAG | 0.971
GTAAGGTGTT | 1.15
GTGCGGAGCT | 1.03
TAACCTCTAC | 1.33
CCATTTAG | 0.989
GGTAACCCGA | 0.983
GCGCCAGTAC | 4.02
CGGGCCGCT | 1.03
TTCAGAAGGC | 1.03
GTAAAAGATG | 1.04
AACCGTCTT | 1.01
AGGGTTTATG | 0.978
GCAACAGGGG | 1.89
CTGGCCACAT | 1
CCGTCCTGGC | 0.865
CAAGTTTCCA | 0.963
TCTATCACCT | 1.15
CGGAATATTA | 1.13
TGGGACCAGT | 0.956
ATGCGATGTT | 0.97

Sequence | switch fluorescence ratio
GAATGTCCGA | 0.981
TTTCTCGAT | 1.08
CGCTGGATGC | 1.39
TGTCGACATG | 1
CATATCACTG | 1.01
GTACCGGGTG | 0.989
AGCTCATAGA | 0.987
ATGGTTCCTA | 0.979
AGTCTAGGTA | 0.987
TATCCTTGAG | 1.06
TAACCTCAC | 1.35
TTGAAAATTA | 0.933
TCCCTCATAT | 1.02
AATTAGTCGA | 1.02
CGCCATTCTG | 1.04
AGTAACGCAA | 4.36
GGGAGGAAGT | 0.996
GAAGTCATAT | 1
TGAAAAAGAA | 0.967
TATGAAAACC | 0.998
AGGGGTTCCC | 1
AGGACACTCT | 1
ACGTGCACCA | 1.18
CAAAATGTTT | 1
CATACAAATC | 1.04

Sequence | switch fluorescence ratio
CGAGTTTGCA | 1
TGGAGGAAAT | 1.07
TACAACGCCT | 1.14
CGGAGGACGC | 1.01
TTTATGAGGC | 0.994
CCGAAGAAGG | 1.64
CTCCTTTCAC | 1.19
TCCATAAGAC | 1.55
GTAGGCCGGT | 1.01
CGTGTGGAAT | 1.02
TAAACAGTAA | 1.01
TAGTGCCATT | 1.08
TAATACTAGT | 1.01
CAAGGCAATC | 5.93
GTTGATTGAA | 0.903
CGTCGCCATT | 0.93
ACAGGTACGA | 1.06
TCGCATCATA | 1.21
CAATGTAAGG | 0.99
CACACTATAT | 1.05
GCCTACCCTT | 0.996
AGGGAATTTT | 0.951
TTCGTAGAGA | 1
GGGTTGATCC | 0.963
CAGCTGATAG | 1.04

Sequence | switch fluorescence ratio
TAGACTTCTG | 1.02
TAATGCGAAG | 1.01
AATAAACATG | 1.04
ATGAGAGTGG | 0.991
ACTTGAGAAG | 0.987
AAATCCTGGT | 1
AGGAGGAAAC | 1.02
CAAAGGGTTT | 0.947
ATCAATGAGG | 0.994
GCCGTCTTAG | 0.966
TATGTGTCCG | 0.962
GAGATCAGCA | 0.986
CCGTCCGGGG | 2.12
TTAAGTACCG | 1.09
CGATTCGAAG | 0.992
CTTGAGGCTT | 0.941
GGGCCAAACA | 0.961
TGATTCTCCT | 1.01
AGCAGAACAG | 0.995
ACAACGCCGG | 1.1
AGTGCACTTT | 0.994
GAGATTGTTG | 0.954
ACATTGGGAA | 0.985
GAACTATGCC | 1.02
GTGAAACGCG | 0.972

Sequence | switch fluorescence ratio
TGTCTGCT | 0.979
GAATGATTCG | 0.994
TCTCATAG | 1.01
GGTTTAAATC | 0.992
GCATCCTAAT | 0.963
ATTCGCATTT | 1.16
CATTCCCGGA | 0.985
TACGAAGGCC | 1.08
CGGTGATTAA | 1.02
GTAGTTGTAA | 0.992
TGCCCTACGA | 1.08
ATTTTTGCG | 0.998
GCTACTGTTG | 1
AGCGTTGTTG | 1
GTTTAGTTTT | 1.03
GGTTGCCTTT | 1
CATCTGTCTT | 1.03
ACGAGCCCCA | 1.35
TCCGTCACA | 1.29
AGTAATTAGC | 1.03
TACATGTACT | 1.12
CTTATCTGGA | 1
TTAAATGTTC | 0.995
GCGACTTGAC | 1.06
AAGCCAAATT | 1.01

Sequence | switch fluorescence ratio
GTTCGGCCGG | 1.01
CTAGGAAGGG | 0.975
CGGTACGATC | 0.998
ACTGGGTGTA | 1.04
ATTAATGAGA | 0.984
CTATGGACGG | 1.01
AAAAGAGAGT | 0.99
AATAATGTGA | 0.998
AGGGCCAACT | 0.976
CGGTTGCCCA | 1.04
GGCTCCTGCG | 0.926
ACAAAGATGT | 1.02
CGTCGAGCCG | 0.965
AACCCTCAGT | 1.03
AGTATTCCGG | 0.988
ACTCATTTGA | 1.04
TAACGATATC | 1.1
CCCCAGCTTT | 1.48
AACCAACGA | 1.52
GGCCTCAGAT | 0.982
CCGGTTTTAA | 1.01
ACCTGGTGCA | 1.39
GTTGAGGCGA | 0.996
CTGGGGCGGT | 1.05
CATTAACGCG | 0.995

Sequence | switch fluorescence ratio
TGATAATTCC | 1.09
GGCCGCAGG | 1.21
TGTTAATCGT | 0.997
GAACATGTTT | 1.03
TTCTCTCGTC | 1.02
GCATTCATTT | 1.08
TTTGTACGGA | 1.03
GTGGCTACCG | 0.963
GATCCTCTTG | 0.989
CTGTTAAGGG | 0.985
TTTGCCGCGC | 1.08
GGCCCAGAGC | 1.02
TTCGCAGGCC | 1.3
GGCGCCCGGC | 0.997
AACAGGCAGC | 1
ATTTGGGGG | 0.962
CCTCCCCCTC | 4.21
AACAAGGGTA | 0.958
TGGCGTCCGT | 0.987
TCTCAGGGTT | 1.04
GTCGTAGCTA | 1.06
TGCGGTGTCC | 0.988
GGCATCTATT | 1.02
CCTATGCATG | 1.78
CCGTGACTAA | 1.21
